This is one part of the list.
test system: HepG2; assay: cytotoxicity call (relative viability < 0.9); settings: 10 µM

Row | Compound | cytotoxicity call
1 | C[C@H](CO)N1C[C@H](C)[C@@H](CN(C)Cc2ccc(Cl)c(Cl)c2)OCCCC[C@H](C)Oc2ccc(NS(C)(=O)=O)cc2C1=O | inactive
2 | C[C@@H]1CN([C@@H](C)CO)C(=O)c2cc(NC(=O)Nc3ccc4c(c3)OCO4)ccc2O[C@@H](C)CCCCO[C@@H]1CN(C)C(=O)c1ccccc1 | inactive
3 | C[C@H]1C[C@@H]2[C@@H](C[C@@H]1C)N[C@@H]1C(=O)NC(=O)N[C@H]1N2C[C@H](O)[C@H](O)[C@H](O)CO | inactive
4 | C[C@H](CO)N1C[C@H](C)[C@@H](CN(C)C(=O)Nc2ccccc2)OCc2ccccc2-c2c(n(C)c3ccccc23)C1=O | inactive
5 | C[C@H](CO)N1C[C@H](C)[C@H](CN(C)S(C)(=O)=O)Oc2ccc(NC(=O)Cn3cnnn3)cc2C1=O | inactive
6 | COc1ccc(S(=O)(=O)N(C)C[C@H]2Oc3ccc(NC(=O)NC(C)C)cc3CC(=O)N([C@H](C)CO)C[C@H]2C)cc1 | inactive
7 | C[C@@H]1CN([C@H](C)CO)C(=O)c2cc(C#CC3CCCCC3)cnc2O[C@@H]1CN(C)C(=O)Cc1ccccn1 | inactive
8 | C[C@@H]1CN([C@H](C)CO)C(=O)c2cccc(NC(=O)NC3CCCCC3)c2O[C@H]1CN(C)Cc1ccc(Oc2ccccc2)cc1 | inactive
9 | COc1ccc(NC(=O)Nc2ccc3c(c2)C(=O)N([C@H](C)CO)C[C@@H](C)[C@@H](CN(C)C(=O)Cc2ccccc2)OCCCC[C@H](C)O3)cc1 | inactive
10 | C[C@@H]1CN([C@@H](C)CO)C(=O)c2cccc(NC(=O)Nc3ccc(C(F)(F)F)cc3)c2O[C@@H]1CN(C)Cc1ccc2c(c1)OCO2 | active
11 | Cc1noc(C)c1S(=O)(=O)Nc1ccc2c(c1)CC(=O)N([C@@H](C)CO)C[C@@H](C)[C@@H](CN(C)S(C)(=O)=O)O2 | inactive
12 | CC[C@@H](CN)Cc1ccccc1 | inactive
13 | O=C(C[C@H]1CC[C@@H]2[C@H](COC[C@@H](O)CN2S(=O)(=O)c2ccccc2)O1)NCc1ccc2c(c1)OCO2 | inactive
14 | Cc1noc(C)c1NC(=O)Nc1ccc2c(c1)C(=O)N([C@@H](C)CO)C[C@@H](C)[C@H](CN(C)C(=O)Nc1cccc3ccccc13)O2 | inactive
15 | C[C@H]1CN([C@@H](C)CO)C(=O)c2cccc(NC(=O)CCCCCC(=O)Nc3ccccc3N)c2O[C@H]1CN(C)S(C)(=O)=O | inactive
16 | C[C@@H]1CN([C@H](C)CO)S(=O)(=O)c2ccc(-c3ccc(C(=O)N(C)C)cc3)cc2O[C@H]1CN(C)C(=O)C1CCC1 | inactive
17 | Cc1ccc(S(=O)(=O)Nc2cccc3c2O[C@@H](CN(C)CC2CC2)[C@H](C)CN([C@@H](C)CO)C3=O)cc1 | inactive
18 | CN(C)CCCNC(=O)C[C@@H]1CC[C@@H]2[C@@H](COc3ccc(NS(C)(=O)=O)cc3C(=O)N2C)O1 | inactive
19 | C[C@@H]1CN([C@H](C)CO)C(=O)c2cc(NS(C)(=O)=O)ccc2O[C@@H](C)CCCCO[C@@H]1CN(C)S(=O)(=O)c1ccc(F)cc1 | inactive
20 | O=C(O)c1cc(O)c2c(c1)C(C1c3cc(C(=O)O)cc(O)c3C(=O)c3c(OC4OC(CO)C(O)C(O)C4O)cccc31)c1cccc(OC3OC(CO)C(O)C(O)C3O)c1C2=O (stereo not given) | active
21 | [Cl][Ca][Cl] | inactive
22 | COc1ccc(S(=O)(=O)Nc2ccc3c(c2)C(=O)N([C@@H](C)CO)C[C@@H](C)[C@H](CN(C)Cc2ccc(C(F)(F)F)cc2)OCCCC[C@@H](C)O3)cc1 | active
23 | C[C@@H]1CCCCO[C@H](CN(C)Cc2ccncc2)[C@@H](C)CN([C@H](C)CO)C(=O)c2cc(NC(=O)Nc3ccc(F)cc3)ccc2O1 | inactive
24 | COCC(=O)N1C[C@@H](C(=O)N2CCCO2)C[C@@H]2OCC[C@@H]21 | inactive
25 | C[C@H](CO)N1C[C@H](C)[C@H](CN(C)S(=O)(=O)c2ccc(F)cc2)OCCCC[C@H](C)Oc2ccc(NC(=O)Nc3cccc4ccccc34)cc2C1=O | inactive
26 | C[C@H]1CN([C@@H](C)CO)C(=O)CCCn2cc(nn2)CO[C@H]1CN(C)C(=O)Nc1ccc2c(c1)OCO2 | inactive
27 | O=C(O)[C@@H]1C[C@@H](O)CN1 | inactive
28 | N[C@@H](CO)c1cccc(Br)c1 | inactive
29 | C[C@@H]1CCCCO[C@@H](CN(C)C(=O)Nc2ccc3c(c2)OCO3)[C@@H](C)CN([C@@H](C)CO)C(=O)c2cc(NC(=O)C3CCCCC3)ccc2O1 | inactive
30 | Cc1noc(C)c1NC(=O)Nc1ccc2c(c1)C(=O)N([C@H](C)CO)C[C@H](C)[C@@H](CN(C)S(=O)(=O)c1cccs1)OCCCC[C@@H](C)O2 | inactive

Reference: the antibiotic and cytotoxicity screens of Wong et al. (2023)
